Measurements published in the supplement of paper PMC3334620.
Whole data set: some 33,000 sequences, median “E-score (-0.5 to 0.5)” near -0.036, cut for the highest 2% near 0.37. This is one part of the list.

Biological target: T1, Yer064c (UniProt P40041)
T1 sequence: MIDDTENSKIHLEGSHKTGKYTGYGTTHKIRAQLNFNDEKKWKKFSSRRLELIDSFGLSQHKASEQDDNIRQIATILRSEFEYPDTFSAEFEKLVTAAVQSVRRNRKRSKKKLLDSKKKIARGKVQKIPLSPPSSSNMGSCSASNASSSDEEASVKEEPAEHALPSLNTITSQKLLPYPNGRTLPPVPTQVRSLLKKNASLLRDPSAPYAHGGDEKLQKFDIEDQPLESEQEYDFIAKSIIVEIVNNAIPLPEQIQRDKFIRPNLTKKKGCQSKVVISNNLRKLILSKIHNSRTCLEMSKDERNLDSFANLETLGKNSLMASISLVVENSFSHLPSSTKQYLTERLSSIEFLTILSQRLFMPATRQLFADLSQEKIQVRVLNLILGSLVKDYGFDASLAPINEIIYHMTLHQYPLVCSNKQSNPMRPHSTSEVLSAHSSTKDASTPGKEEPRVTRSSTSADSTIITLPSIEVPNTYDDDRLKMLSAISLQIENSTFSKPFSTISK
Test: PBM E-score (8-mer binding enrichment) (E-score (-0.5 to 0.5)); higher = stronger / more preferred TF binding; most listed sequences are background and not binding sites
Details: protein concentration: 200 nM; construct: GST-full length
Description: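 Universal 'all 10-mer' protein binding microarrays (Agilent AMADID 015681) probed with GST-tagged S. cerevisiae TFs (full-length or DBD) made by in vitro transcription/translation (PURExpress), about 100-200 nM. Bound TF was detected with fluorescent anti-GST. Each ungapped 8-mer (which stands for itself and its reverse complement) is scored by the PBM enrichment score (E-score), a modified Wilcoxon-Mann-Whitney statistic from -0.5 to +0.5, computed with the Universal PBM Analysis Suite. Scale: above 0.35 generally sequence-specific binding.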

Sequence	PBM E-score
CTACTCTC	0.0436
ATACGCTC	-0.031
AATTTTAG	0.0832
AGTGCGGC	-0.232
CGTTGGTC	-0.191
CCTTTCGC	-0.295
ACTCCTAT	0.21
CACCGTAG	-0.0709
CGGGTACA	-0.124
CGCCCGCG	-0.224
GACCCGAC	-0.0481
TATCATGA	0.256
ACCTAGAA	0.128
CCAAACGG	-0.104
ACCTTATA	-0.0676
GCCTTCCA	-0.273
ATTTATAC	0.147
AATTGGCC	-0.139
AGCCGGAC	-0.107
CGCAGGTA	-0.0757
CGCCCCCC	-0.436
GGGGAGAA	-0.196

Sequence	PBM E-score
CCGGTTAA	-0.0828
CGTTACTC	0.126
GTAAAGTA	0.0602
GCACGACC	-0.0623
CCAATGTA	-0.0744
AACCAGAG	0.052
CAAGTGTC	-0.0823
ATTCCCTC	-0.0751
AAGCGGGT	-0.0832
GAACAGAA	-0.069
CCTTAAGA	-0.106
ATATAGAG	-0.14
CAGAATCG	0.136
ACCTCCTA	-0.134
AGTTACAC	0.16
GCAGGATA	-0.26
AGTTGGAT	0.12
CGACATAC	-0.191
GACGGCAC	-0.272
CGCAGTGC	-0.146
TCAACAGA	0.211
ACGTATCG	-0.166

Sequence	PBM E-score
AGCGAGAA	-0.0575
ACGTGCTC	-0.13
ATACTAAC	-0.0724
ACGGCTCA	0.195
CAGAAGCA	-0.184
ACGTACTG	-0.00633
CCCGGGCG	-0.0727
CACGTAGG	-0.0596
CGGAATTC	-0.207
CTTATTAC	0.0573
ACCGTGCC	-0.124
ACTGCTGG	-0.0181
CGTGCACC	-0.309
GATCACCC	0.00825
CTGCGAGA	0.0231
ACCTACTG	-0.201
ACAATTCA	-0.0189
ACACCTGC	-0.074
ATGTATTC	-0.0916
TCCTGTAA	0.181
CTCGGCCA	-0.0584
AAAGTTTG	0.0334

Sequence	PBM E-score
ATACAGCG	-0.165
CTTATAAC	-0.0131
ACGAGTAA	0.0578
GCTCAGTA	0.159
CTACCCAC	-0.00457
CTGTCAAA	0.0473
ATAGGCAT	-0.259
ACTACTAT	0.188
GTCACACA	0.267
GATGGCGC	-0.261
CGTGGATC	-0.145
ACGTAAGA	0.162
GACTCGAA	0.396
TAATTCAA	0.14
ATCGGGCC	-0.333
GCGAGTCC	0.262
CTGTCGCC	-0.328
CTTGAGCC	0.0632
AATCAACA	0.291
CGCCTGGA	0.00101
